Test results: PMC2991254
Results are given in words; binding and its absence hold for the method and conditions named. Some entries that bind do so weakly or less than the wild type.

The chains behind the UniProt entries cited, without tags or fusion partners. Where a name states a change or a piece, a line headed by the entry shows the natural chain unless it says otherwise. A line that says so, or that is headed by a name, gives the form on record, which may keep a tag or linker.
UniProt Q9SZJ6: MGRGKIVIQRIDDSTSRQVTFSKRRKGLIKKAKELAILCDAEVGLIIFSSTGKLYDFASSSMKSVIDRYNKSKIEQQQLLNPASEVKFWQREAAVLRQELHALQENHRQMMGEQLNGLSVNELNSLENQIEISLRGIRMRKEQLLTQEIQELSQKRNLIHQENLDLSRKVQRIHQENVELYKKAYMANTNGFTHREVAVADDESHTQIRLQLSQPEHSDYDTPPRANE
UniProt P29386: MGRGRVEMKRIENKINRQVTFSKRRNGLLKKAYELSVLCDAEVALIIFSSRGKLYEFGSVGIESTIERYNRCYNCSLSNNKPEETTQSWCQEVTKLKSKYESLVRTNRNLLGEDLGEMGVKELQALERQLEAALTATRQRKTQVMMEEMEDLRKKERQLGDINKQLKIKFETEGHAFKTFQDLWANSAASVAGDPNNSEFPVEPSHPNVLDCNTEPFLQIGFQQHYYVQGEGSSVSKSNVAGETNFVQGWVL
UniProt P29381: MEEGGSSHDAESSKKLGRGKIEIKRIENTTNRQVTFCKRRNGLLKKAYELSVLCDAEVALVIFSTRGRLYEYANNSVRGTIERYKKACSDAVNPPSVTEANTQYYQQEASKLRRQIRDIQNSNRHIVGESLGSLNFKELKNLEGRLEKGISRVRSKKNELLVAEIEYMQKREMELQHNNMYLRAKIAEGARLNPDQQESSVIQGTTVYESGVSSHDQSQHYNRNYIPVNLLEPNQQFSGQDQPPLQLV
UniProt O22456: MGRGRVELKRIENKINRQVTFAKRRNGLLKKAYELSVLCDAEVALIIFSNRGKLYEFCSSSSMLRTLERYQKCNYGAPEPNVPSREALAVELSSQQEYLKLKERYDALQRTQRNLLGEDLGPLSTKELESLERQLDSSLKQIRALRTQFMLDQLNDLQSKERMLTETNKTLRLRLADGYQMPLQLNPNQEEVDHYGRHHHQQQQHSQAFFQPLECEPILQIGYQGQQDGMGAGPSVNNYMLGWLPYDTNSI
UniProt Q9FPN7: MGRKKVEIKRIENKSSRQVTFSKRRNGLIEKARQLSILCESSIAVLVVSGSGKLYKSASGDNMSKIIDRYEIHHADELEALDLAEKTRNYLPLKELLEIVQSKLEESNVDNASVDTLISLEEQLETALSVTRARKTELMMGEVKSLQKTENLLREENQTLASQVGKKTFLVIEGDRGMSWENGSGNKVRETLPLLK
UniProt Q38840: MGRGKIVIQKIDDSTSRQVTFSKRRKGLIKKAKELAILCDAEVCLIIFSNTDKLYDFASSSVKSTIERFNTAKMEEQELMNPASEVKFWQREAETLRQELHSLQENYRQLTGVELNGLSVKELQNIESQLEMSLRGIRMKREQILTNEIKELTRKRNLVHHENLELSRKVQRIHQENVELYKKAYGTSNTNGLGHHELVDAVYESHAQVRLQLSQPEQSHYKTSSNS
UniProt P29385: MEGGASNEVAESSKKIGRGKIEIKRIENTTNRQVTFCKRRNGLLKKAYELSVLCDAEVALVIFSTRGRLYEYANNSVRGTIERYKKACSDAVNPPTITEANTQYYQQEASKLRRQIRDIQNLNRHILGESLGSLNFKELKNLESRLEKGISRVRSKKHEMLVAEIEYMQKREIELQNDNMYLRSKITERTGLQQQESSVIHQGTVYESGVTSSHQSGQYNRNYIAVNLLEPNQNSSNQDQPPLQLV
UniProt Q38838: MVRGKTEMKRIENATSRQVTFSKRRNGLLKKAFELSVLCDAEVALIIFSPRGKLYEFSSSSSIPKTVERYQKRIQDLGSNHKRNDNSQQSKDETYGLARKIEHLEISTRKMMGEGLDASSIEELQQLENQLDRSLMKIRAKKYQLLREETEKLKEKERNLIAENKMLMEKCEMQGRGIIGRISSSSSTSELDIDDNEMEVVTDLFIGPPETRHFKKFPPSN
AGL14 SIPK62-65MQD (Q38838, form named): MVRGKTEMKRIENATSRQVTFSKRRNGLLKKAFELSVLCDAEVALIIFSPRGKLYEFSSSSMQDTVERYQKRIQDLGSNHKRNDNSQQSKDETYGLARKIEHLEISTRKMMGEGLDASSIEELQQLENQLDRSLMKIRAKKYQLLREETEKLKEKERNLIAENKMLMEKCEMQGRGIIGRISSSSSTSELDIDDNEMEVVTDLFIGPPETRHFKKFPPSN
UniProt P35631: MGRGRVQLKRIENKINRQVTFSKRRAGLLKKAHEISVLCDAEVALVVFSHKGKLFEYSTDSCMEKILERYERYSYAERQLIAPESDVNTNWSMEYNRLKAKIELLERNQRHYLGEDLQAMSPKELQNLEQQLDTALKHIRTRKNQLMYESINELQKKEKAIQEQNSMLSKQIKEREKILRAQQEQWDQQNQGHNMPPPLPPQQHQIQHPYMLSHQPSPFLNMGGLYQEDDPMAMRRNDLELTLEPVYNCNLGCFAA
UniProt Q39081: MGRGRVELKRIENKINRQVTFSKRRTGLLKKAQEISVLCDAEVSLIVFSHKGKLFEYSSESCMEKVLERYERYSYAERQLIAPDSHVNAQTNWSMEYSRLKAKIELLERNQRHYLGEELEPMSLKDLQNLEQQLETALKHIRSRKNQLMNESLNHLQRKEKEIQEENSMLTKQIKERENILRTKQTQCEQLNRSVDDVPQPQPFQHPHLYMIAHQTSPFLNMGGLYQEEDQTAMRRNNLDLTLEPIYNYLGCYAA
UniProt P17839: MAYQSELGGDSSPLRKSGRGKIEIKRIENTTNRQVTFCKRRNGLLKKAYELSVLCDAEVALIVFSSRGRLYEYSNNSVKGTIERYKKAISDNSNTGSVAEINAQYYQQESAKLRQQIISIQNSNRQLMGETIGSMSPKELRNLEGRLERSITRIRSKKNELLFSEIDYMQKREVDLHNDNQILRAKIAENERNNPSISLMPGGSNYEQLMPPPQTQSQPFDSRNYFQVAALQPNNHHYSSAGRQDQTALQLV
UniProt O64645: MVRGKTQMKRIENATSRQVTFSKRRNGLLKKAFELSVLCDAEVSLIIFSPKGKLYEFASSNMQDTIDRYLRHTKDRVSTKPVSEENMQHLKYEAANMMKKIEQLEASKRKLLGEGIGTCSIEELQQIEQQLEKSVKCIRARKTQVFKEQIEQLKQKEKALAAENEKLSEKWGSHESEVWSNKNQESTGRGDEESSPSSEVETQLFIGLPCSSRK

Assays:
Assay in all cases: two-hybrid; matrix-based yeast two-hybrid, GAL4-AD and GAL4-BD fusions (pDEST22, pDEST32), in duplicate, at least two reporter genes; medium lacking Leu, Trp and His with 1 mM 3-amino-1,2,4-triazole, growth scored after 4 days at 20°C
[1] = target: AGL21 (Arabidopsis thaliana) (UniProt Q9SZJ6)
[2] = target: T1, AGL13 (Arabidopsis thaliana) (UniProt Q38837)
T1 sequence: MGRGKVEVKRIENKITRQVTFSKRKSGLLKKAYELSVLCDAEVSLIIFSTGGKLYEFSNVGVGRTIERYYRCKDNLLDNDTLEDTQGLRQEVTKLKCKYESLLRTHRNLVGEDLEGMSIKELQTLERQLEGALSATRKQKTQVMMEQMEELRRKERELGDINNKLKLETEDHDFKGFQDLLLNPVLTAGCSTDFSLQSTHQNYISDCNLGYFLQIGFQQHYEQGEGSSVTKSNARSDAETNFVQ

[3] = target: SHORT … PHASE (SVP1) (Arabidopsis thaliana) (UniProt Q9FVC1)
[4] = target: AGL6 (Arabidopsis thaliana) (UniProt P29386)
[5] = target: …OOF1 (Arabidopsis thaliana) (UniProt P29381)
[6] = target: T2, AGL71 (Arabidopsis thaliana) (UniProt Q9LT93)
T2 sequence: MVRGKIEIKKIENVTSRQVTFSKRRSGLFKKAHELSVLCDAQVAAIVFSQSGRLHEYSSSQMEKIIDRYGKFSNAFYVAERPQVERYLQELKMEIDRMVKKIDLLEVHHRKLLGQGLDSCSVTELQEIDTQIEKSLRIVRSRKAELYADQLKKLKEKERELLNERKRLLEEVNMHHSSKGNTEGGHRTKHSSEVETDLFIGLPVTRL

[7] = target: T3, AGL15 (Arabidopsis thaliana) (UniProt Q38847)
T3 sequence: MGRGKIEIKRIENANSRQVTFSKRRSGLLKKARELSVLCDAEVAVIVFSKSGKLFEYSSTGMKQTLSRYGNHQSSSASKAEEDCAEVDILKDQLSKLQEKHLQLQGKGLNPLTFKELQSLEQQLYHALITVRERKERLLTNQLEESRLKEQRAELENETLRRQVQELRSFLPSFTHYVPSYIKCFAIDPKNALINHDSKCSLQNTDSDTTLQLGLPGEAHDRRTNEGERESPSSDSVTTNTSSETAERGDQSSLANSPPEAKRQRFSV

[8] = target: SEP3 (Arabidopsis thaliana) (UniProt O22456)
[9] = target: MADS … FLOWERING 2 (Arabidopsis thaliana) (UniProt Q9FPN7)
[10] = target: AGL17 (Arabidopsis thaliana) (UniProt Q38840)
[11] = target: …OOF2 (Arabidopsis thaliana) (UniProt P29385)
[12] = target: AGAMOUS LIKE14 (Arabidopsis thaliana) (UniProt Q38838)
[13] = target: APETALA1 (Arabidopsis thaliana) (UniProt P35631)
[14] = target: CAULIFLOWER (Arabidopsis thaliana) (UniProt Q39081)

Row | binding [1] | binding [2] | binding [3] | binding [4] | binding [5] | binding [6] | binding [7] | binding [8] | binding [9] | binding [10] | binding [11] | binding [12] | binding [13] | binding [14] | Substance
1 | binds | binds | binds | no binding | no binding | no binding | binds | binds | no binding | no binding |  | no binding | no binding | no binding | AGAMOUS (from UniProt P17839 1-252)
2 | no binding | binds | binds | no binding | no binding | no binding | no binding | binds | no binding | no binding | binds | no binding | binds | no binding | AGL14 SIPK62-65MQD (from UniProt Q38838 1-221)
3 | no binding | binds | binds | no binding | no binding | no binding | no binding | binds | no binding | no binding | no binding | no binding | binds | no binding | AP1 Y148N (from UniProt P35631 1-256)
4 | no binding | binds | binds | no binding | binds | no binding | no binding | binds | no binding | binds | binds | binds | binds | no binding | CAL N150Y (from UniProt Q39081 1-255)
5 | binds | no binding |  | binds | binds | no binding | no binding | binds |  | binds | binds |  | binds | no binding | SHORT … PHASE (SVP1) (from UniProt Q9FVC1 1-240)

Second part, the substance before the results:

Row | Substance | binding [1] | binding [2] | binding [3] | binding [4] | binding [5] | binding [6] | binding [7] | binding [8] | binding [9] | binding [10] | binding [11] | binding [12] | binding [13] | binding [14]
6 | AG Q126H (from UniProt P17839 1-252) | no binding | no binding | no binding | no binding | no binding | no binding | no binding | binds | no binding | no binding | no binding | no binding | no binding | no binding
7 | AGAMOUS LIKE14 (from UniProt Q38838 1-221) | no binding | no binding |  | no binding | no binding | no binding | no binding | no binding | no binding | no binding | no binding | no binding | no binding | no binding
8 | AP1 I66V (from UniProt P35631 1-256) | no binding | no binding | no binding | no binding | no binding | no binding | no binding | binds | no binding | no binding | no binding | no binding | no binding | no binding
9 | AP1 I66V/Y148N (from UniProt P35631 1-256) | no binding | no binding | no binding | no binding | no binding | no binding | no binding | no binding | no binding | no binding | no binding | no binding | no binding | no binding
10 | APETALA1 (from UniProt P35631 1-256) | binds | no binding | binds | binds | no binding | no binding | binds | binds | no binding | no binding | no binding | no binding |  | no binding
11 | SUPPRESSOR OF OVEREXPRESSION OF CO 1 (from UniProt O64645 1-214) | binds | binds | binds |  | binds | binds | binds | binds | no binding | binds | binds | binds | binds | binds
